Assay results reported in the supplement of paper PMC4466236.
In all, about 33,000 sequences were measured (“E-score (dimensionless, -0.5 to 0.5)”: median about -0.058, highest 2% from about 0.35 on). This is one part of the list.

Tested on: MvaT
Experiment: PBM 8-mer E-score (mean of HK and ME arrays) (E-score (dimensionless, -0.5 to 0.5)); higher = stronger relative binding preference; most listed sequences are background and not binding sites
Protocol: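 Protein binding microarray: GST-tagged full-length MvaT (P. aeruginosa PAO1) bound to two universal double-stranded 60-mer arrays (ME and HK), each with a constant 25-mer primer and a variable 35-mer region covering all 8-mers. The 8-mer E-score (rank-based, range -0.5 to 0.5, >0.45 = specific binding) is the mean of the two arrays.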

Row | Sequence | PBM 8-mer E-score
1 | ACGTACCT | -0.184
2 | CCTCACGC | -0.318
3 | TGCCGCAA | 0.0457
4 | CTCACCAG | -0.163
5 | ACCAAGTC | -0.141
6 | CGGTGCAA | -0.135
7 | AGGAACAT | -0.142
8 | TATGAGAA | 0.061
9 | CTCAGCTA | 0.0433
10 | AGAAACTA | 0.221
11 | AACATTAG | 0.234
12 | TACAAAAA | -0.0275
13 | GCACAGGC | -0.253
14 | CAGACGGC | -0.101
15 | GACGTTGA | -0.199
16 | CGGGCCGC | -0.275
17 | AGCAGGCG | -0.287
18 | ATTACCAG | 0.195
19 | ACATCTCA | 0.0853
20 | TTCTAGAA | 0.134
21 | ACAACTGG | 0.0264
22 | ACGGGTCC | -0.19
23 | ACCGCGCG | -0.136
24 | TATCCTGA | 0.129
25 | ATAAGACG | 0.193

Row | Sequence | PBM 8-mer E-score
26 | GATATCCA | 0.035
27 | ATCAAAAA | 0.228
28 | CGTGACTC | -0.196
29 | CCCTCCAC | -0.234
30 | CAGCAGGG | -0.234
31 | CGTCACAC | -0.104
32 | ACGAAAGA | 0.0583
33 | CTCGTAAA | 0.0756
34 | CATGTTTC | 0.203
35 | TGATTGAA | 0.00919
36 | AGGCCCGA | -0.288
37 | ATTTATCA | 0.301
38 | CGCCCTAG | -0.24
39 | CACGTGGA | -0.121
40 | AACTGTCC | -0.0476
41 | ATGACGCG | -0.172
42 | CTCACTTA | 0.0555
43 | AGACCGTA | -0.109
44 | TTGAACAA | 0.153
45 | AAAGTGTA | 0.198
46 | TCGCTTAA | 0.0456
47 | ACTAGATC | -0.0531
48 | ATGCGTGG | -0.225
49 | ACCTAACG | -0.0378
50 | ATCCGTGA | -0.0681

Row | Sequence | PBM 8-mer E-score
51 | ATCTAAGG | -0.102
52 | GACCTCGA | -0.0685
53 | CCCGGCAG | -0.175
54 | CAAGGATC | -0.31
55 | CAGTGACA | -0.117
56 | ATATAAAT | 0.45
57 | AACCCAAA | 0.0509
58 | ACTAGCTG | -0.0453
59 | GAGCGGCA | -0.0736
60 | CAAGCCCC | -0.255
61 | CCCGCGAC | -0.15
62 | AGTTAGCG | 0.0842
63 | GTAACAGA | -0.0526
64 | CGTTACAA | 0.185
65 | CACTTAGA | 0.164
66 | GGACTCAA | -0.172
67 | ATAACGAG | 0.242
68 | GGAACGCA | -0.0472
69 | CTTATGAC | 0.0608
70 | GAATTCGA | 0.0572
71 | CGTTATTC | 0.24
72 | AGCATGTA | 0.14
73 | GCTGAGAA | 0.031
74 | ACTTTTCC | 0.0904
75 | GGTATACC | -0.102

Row | Sequence | PBM 8-mer E-score
76 | CACCGAGC | -0.273
77 | GGGGACCA | -0.249
78 | AGTGTTCC | -0.0184
79 | CCATGCAC | -0.178
80 | TATGAGCA | 0.021
81 | ATAGAGAG | 0.188
82 | TGTTGCAA | 0.234
83 | CCTCACCG | -0.202
84 | CCCCCGAC | -0.328
85 | ACCGAGGT | -0.121
86 | CGAATAAC | 0.207
87 | GTGTTCAA | 0.0247
88 | GAGCCAGC | -0.295
89 | ACTTTAAA | 0.404
90 | AGACGTGG | -0.352
91 | AGTGCTCA | -0.0133
92 | AAAGCGGC | -0.11
93 | CTCTCTTA | 0.00753
94 | CGAAGTTA | 0.24
95 | AAGTCCTC | -0.0822
96 | CAAGCTCA | -0.129
97 | AGCGGTGG | -0.209
98 | CGATTATA | 0.292
99 | AATCCTGT | 0.106
100 | GGTCCAAC | -0.213

Row | Sequence | PBM 8-mer E-score
101 | AATCGCGG | 0.0231
102 | GACTGAAC | 0.0975
103 | CGTCAGGA | -0.133
104 | GATGTACA | 0.098
105 | ACCTGGTG | -0.132
106 | AAAGGAGT | 0.0119
107 | AGATGTAT | 0.169
108 | ACAGAATC | -0.129
109 | CACCTGCC | -0.304
110 | ACTGCGAC | -0.0469
111 | ACACGTGA | -0.0971
112 | TAACTCGA | 0.0525
113 | AACTTGTC | 0.06
114 | CAGTAGCG | -0.11
115 | CTAGGTAA | 0.0421
116 | ACCGCTAG | -0.0522
117 | AAACGAGG | -0.163
118 | ACAGCTCT | -0.047
119 | AATCTGCG | -0.045
120 | AACAGTAA | 0.226
121 | ACTAGAGT | 0.11
122 | CCCTTTAC | -0.133
123 | AAAAAGTA | 0.154
124 | ACTGTTAA | 0.225
125 | CTCTAGAG | 0.00546

Row | Sequence | PBM 8-mer E-score
126 | AGGAAAAG | -0.115
127 | GTCTGTCA | -0.113
128 | CCCTCTGA | -0.326
129 | CATCGTCA | -0.121
130 | GTGGGCCA | -0.137
131 | GTTCAGCA | -0.0245
132 | ACGCCCGC | -0.224
133 | AACTTTCG | 0.255
134 | GATGACAC | -0.0924
135 | CAACGATG | -0.0854
136 | AATGGATA | 0.231
137 | ATCGAGGC | -0.227
138 | GGAAGTAC | 0.108
139 | CTATCCTC | -0.0982
140 | ATATCGGC | 0.177
141 | TACCAGTA | 0.0885
142 | GTCCCGAC | -0.101
143 | ACCGACGA | -0.0844
144 | GTGCTGAA | -0.00218
145 | GGGTGGAA | -0.131
146 | GGTCGTAC | -0.143
147 | TATTAAAA | 0.41
148 | GAAGACTC | -0.0651
149 | CATTAGGA | -0.0108
150 | CCCTTCCG | -0.317

Row | Sequence | PBM 8-mer E-score
151 | ATATATCC | 0.38
152 | AGGTAGAT | -0.0384
153 | ACCGCGGT | -0.134
154 | ATTACAGC | 0.168
155 | AACGCGAT | 0.0116
156 | ATTAGAAT | 0.188
157 | CGCCAGAG | -0.218
158 | CTGCAAAA | 0.0192
159 | ACGCATTG | -0.0106
160 | GATCGTAA | 0.0333
161 | AAAAGATG | 0.107
162 | CAGAACCA | -0.0941
163 | CCGAGATC | -0.206
164 | AAAACCTT | 0.103
165 | GACAAGAA | -0.0203
166 | CCCAACTC | -0.0484
167 | CAAGGTTC | -0.183
168 | GACGTCGC | -0.221
169 | CATGGGCC | -0.149
170 | ACTTCGTA | 0.103
171 | AGCGTCAG | -0.233
172 | CCTGATGA | -0.121
173 | AAGAATCG | 0.0557
174 | GACAACGC | -0.147
175 | ACTTACCC | 0.00851

Row | Sequence | PBM 8-mer E-score
176 | GGGGATGA | -0.216
177 | CCCACACA | 0.059
178 | ACGACCTG | -0.164
179 | TAAGCCGA | -0.0711
180 | AAGTGAGC | -0.042
181 | ACTACCTC | -0.0495
182 | GTAAGCTA | -0.0635
183 | CAAACAAC | 0.108
184 | ATAAACCC | 0.135
185 | ACTTCTGA | 0.23
186 | ACCTACCG | -0.236
187 | CGCTGAAG | -0.192
188 | CCGTTGCA | -0.14
189 | ACGTGCAG | -0.108
190 | CAATTGAA | 0.206
191 | GTTATGAA | 0.17
192 | CTGGATGC | -0.15
193 | AACTCCTT | -0.0055
194 | GAGTCATC | -0.278
195 | ATGAAGGA | -0.101
196 | ACCTCGCG | -0.226
197 | CTCTTTGA | -0.0339
198 | GCCACCCA | -0.102
199 | ATCAATTG | 0.279
200 | ATTATCGG | 0.224

Row | Sequence | PBM 8-mer E-score
201 | GGGAGTCA | -0.128
202 | ACCCCGGG | -0.285
203 | GCTCCATA | -0.0313
204 | CGTGCTCC | -0.227
205 | CTGCAAGA | 0.0151
206 | ATAACCAT | 0.159
207 | ACCCCATG | -0.0913
208 | GACAGAAC | -0.0903
209 | GACTGACA | -0.171
210 | AAATCCGT | -0.176
211 | GACTCTCC | -0.337
212 | CAAAGAAA | 0.14
213 | TTCCGGAA | 0.0697
214 | CTACCGGC | -0.156
215 | ACCTTGCG | -0.0997
216 | AGAGTCCA | -0.28
217 | ATTCGGTG | -0.00558
218 | AAGCTACT | -0.143
219 | AAAGTTAG | 0.353
